Results: patent publication US20250333508A1 (ZHEJIANG NANOMAB TECHNOLOGY CENTER, published 2025)
Residue numbers refer to the chain shown, from its start.

T1: human CTLA-4 his tag antigen (human, UniProt P16410 36-161)
T1 construct: Bought (ACRO Biosystems); also called CTLA-4. his tag protein (human); not shown: His tag
T1 sequence (looked up): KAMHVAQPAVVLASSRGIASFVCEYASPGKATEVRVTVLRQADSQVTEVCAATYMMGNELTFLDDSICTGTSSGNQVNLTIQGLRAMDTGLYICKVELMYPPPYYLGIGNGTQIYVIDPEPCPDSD

B1: NGS-16-z1 (Fc fusion)
chain: EVQLVESGGGLVQPGGSLRLSCAASGGTLDYWSIGWFRQAPGKEREEVSCISGTGLRTNYADSVKGRFTISRDNSKNTVYLQMNSLRAEDTAVYYCTGKLLHPSLWSACANEYDLWGQGTQVTVSS[skipping human IgG4 Fc with S228P (EU numbers)]
notes: Format in the assay not restated
B2: NGS-16-z11 (Fc fusion)
chain: B1 chain with A23E, I70V, Y80I, A92G
notes: as for B1
B3: NGS-16-z10 (Fc fusion)
chain: B1 chain with A23E, Y80I, A92G
notes: as for B1
B4: NGS-16-z8 (Fc fusion)
chain: B1 chain with A23E, Y80I
notes: as for B1
B5: NGS-16-z3 (Fc fusion)
chain: B1 chain with A92G
notes: as for B1
B6: NGS-16-z4 (Fc fusion)
chain: B1 chain with Y80I, A92G
notes: as for B1
B7: NGS-16-z7 (Fc fusion)
chain: B1 chain with A23E
notes: as for B1
B8: NGS-16-z9 (Fc fusion)
chain: B1 chain with A23E, A92G
notes: as for B1
B9: NGS-16-z5 (Fc fusion)
chain: B1 chain with I70V, Y80I, A92G
notes: as for B1
B10: NGS-16-z6 (Fc fusion)
chain: B1 chain with I70V, T78S, Y80I, A92G
notes: as for B1
B11: NGS-12-z2 (Fc fusion)
chain: EVQLVESGGGLVQPGGSLRLSCAASGFSSDYYDIGWFRQDPGKEREMVSCIRSSGGSTKYADSVKGRFTISRDNSKNTVYLQMNSLRAEDTAVYYCGLAPISPVHAVCNQHYFGYWGQGTRVTVSS[skipping human IgG4 Fc with S228P (EU numbers)]
notes: as for B1
B12: NGS-12-z3 (Fc fusion)
chain: B11 chain with D40A, G42E
notes: as for B1
B13: NGS-12-z4 (Fc fusion)
chain: B11 chain with G42E
notes: as for B1
B14: NGS-12-z5 (Fc fusion)
chain: B11 chain with G42E, R87E
notes: as for B1
B15: NB-27-z1 (Fc fusion)
chain: EVQLVESGGGLVQPGGSLRLSCAASGSTLDPFVIGWFRQAPGKERETVSCINRSRTSYADSVKGRFTISRDNSKNTVYLQMNSLRAEDTAVYYCAASPDKPFYTDQTMCNKHYYGYWTQGTQVTVSS[skipping human IgG4 Fc with S228P (EU numbers)]
notes: as for B1
B16: NB-27-z2 (Fc fusion)
chain: B15 chain with T76M
notes: as for B1

These binders were tested against T1, human CTLA-4 his tag antigen (assay: SPR, Ab on protein A, CTLA-4.His in flow).

Kd [nM]	koff [s⁻¹]	kon [M⁻¹ s⁻¹]	Binder
3.75	0.00473	1.26e+06	B1
0.429	0.00045	1.05e+06	B2
0.602	0.00065	1.08e+06	B3
0.533	0.00057	1.07e+06	B4
2.82	0.00305	1.08e+06	B5
0.61	0.00036	590000	B6
4.86	0.00676	1.39e+06	B7
3.98	0.00617	1.55e+06	B8
0.466	0.00027	580000	B9
0.476	0.0002	420000	B10
1.8	0.00027	150000	B11
1.68	0.00032	190000	B12
1.65	0.00033	200000	B13
1.16	0.00029	250000	B14
1.14	0.000455	399000	B15
0.943	0.000345	366000	B16
